# Reference: the supplement of paper PMC8728848
# Some of the results follow.
# Columns and labels:
# Experiment in all cases: glycan array binding signal (z-score within array); higher = stronger binding
# Details in all cases: glycan notation: IUPAC condensed, linker removed
# [1] = molecular target: Fuc(a1-2)Gal(b1-4)GlcNAc(b1-2)Man(a1-3)[Fuc(a1-2)Gal(b1-4)GlcNAc(b1-2)Man(a1-6)]Man(b1-4)GlcNAc(b1-4)GlcNAc
# Procedure, shortened: (§1)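 From the Consortium for Functional Glycomics database, 3228 arrays were curated, keeping only those whose protein sequence was available. Binding is given as a within-array Z-score averaged across arrays sharing a protein sequence and across linkers. Negative Z-scores can be read as non-binding.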
# [2] = molecular target: Fuc(a1-2)Gal(b1-4)GlcNAc(b1-2)Man(a1-3)[Fuc(a1-2)Gal(b1-4)GlcNAc(b1-2)Man(a1-6)]Man(b1-4)GlcNAc(b1-4)[Fuc(a1-6)]GlcNAc
# Procedure, shortened: as §1
# [3] = molecular target: Fuc(a1-2)Gal(b1-4)GlcNAc(b1-2)[Fuc(a1-2)Gal(b1-4)GlcNAc(b1-4)]Man(a1-3)[Fuc(a1-2)Gal(b1-4)GlcNAc(b1-2)Man(a1-6)]Man(b1-4)GlcNAc(b1-4)GlcNAc
# Procedure, shortened: as §1
# [4] = molecular target: Fuc(a1-2)Gal(b1-4)GlcNAc(b1-3)Gal(b1-4)GlcNAc
# Procedure, shortened: as §1
# [5] = molecular target: Fuc(a1-2)Gal(b1-4)GlcNAc(b1-3)Gal(b1-4)GlcNAc(b1-2)Man(a1-3)[Fuc(a1-2)Gal(b1-4)GlcNAc(b1-3)Gal(b1-4)GlcNAc(b1-2)Man(a1-6)]Man(b1-4)GlcNAc(b1-4)GlcNAc
# Procedure, shortened: as §1
# [6] = molecular target: Fuc(a1-2)Gal(b1-4)GlcNAc(b1-3)Gal(b1-4)GlcNAc(b1-3)Gal(b1-4)GlcNAc
# Procedure, shortened: as §1
# [7] = molecular target: Fuc(a1-2)Gal(b1-4)GlcNAc(b1-3)GalNAc
# Procedure, shortened: as §1
# [8] = molecular target: Fuc(a1-2)Gal(b1-4)GlcNAc(b1-3)[Fuc(a1-2)Gal(b1-4)GlcNAc(b1-6)]GalNAc
# Procedure, shortened: as §1
# [9] = molecular target: Fuc(a1-2)Gal(b1-4)GlcNAc(b1-3)[Fuc(a1-3)[Gal(b1-4)]GlcNAc(b1-6)]Gal(b1-4)Glc
# Procedure, shortened: as §1
# [10] = molecular target: Fuc(a1-2)Gal(b1-4)GlcNAc(b1-6)GalNAc
# Procedure, shortened: as §1
# [11] = molecular target: Fuc(a1-2)Gal(b1-4)GlcNAc6S
# Procedure, shortened: as §1
# [12] = molecular target: Fuc(a1-2)Gal(b1-4)[Fuc(a1-3)]GalNAc(b1-3)Gal(b1-4)[Fuc(a1-3)]GlcNAc
# Procedure, shortened: as §1
# [13] = molecular target: Fuc(a1-2)Gal(b1-4)[Fuc(a1-3)]GalNAc(b1-3)Gal(b1-4)[Fuc(a1-3)]GlcNAc(b1-3)Gal(b1-4)[Fuc(a1-3)]GalNAc
# Procedure, shortened: as §1
# [14] = molecular target: Fuc(a1-2)Gal(b1-4)[Fuc(a1-3)]GlcNAc
# Procedure, shortened: as §1
# [15] = molecular target: Fuc(a1-2)Gal(b1-4)[Fuc(a1-3)]GlcNAc(b1-2)Man(a1-3)[Fuc(a1-2)Gal(b1-4)[Fuc(a1-3)]GlcNAc(b1-2)Man(a1-6)]Man(b1-4)GlcNAc(b1-4)GlcNAc
# Procedure, shortened: as §1
# [16] = molecular target: Fuc(a1-2)Gal(b1-4)[Fuc(a1-3)]GlcNAc(b1-2)Man(a1-3)[Fuc(a1-2)Gal(b1-4)[Fuc(a1-3)]GlcNAc(b1-2)Man(a1-6)]Man(b1-4)GlcNAc(b1-4)[Fuc(a1-6)]GlcNAc
# Procedure, shortened: as §1
# [17] = molecular target: Fuc(a1-2)Gal(b1-4)[Fuc(a1-3)]GlcNAc(b1-2)Man(a1-6)[Fuc(a1-2)Gal(b1-4)[Fuc(a1-3)]GlcNAc(b1-2)Man(a1-3)]Man(b1-4)GlcNAc(b1-4)[Fuc(a1-6)]GlcNAc
# Procedure, shortened: as §1
# [18] = molecular target: Fuc(a1-2)Gal(b1-4)[Fuc(a1-3)]GlcNAc(b1-2)[Fuc(a1-2)Gal(b1-4)[Fuc(a1-3)]GlcNAc(b1-4)]Man(a1-3)[Fuc(a1-2)Gal(b1-4)[Fuc(a1-3)]GlcNAc(b1-2)Man(a1-6)]Man(b1-4)GlcNAc(b1-4)GlcNAc
# Procedure, shortened: as §1
# [19] = molecular target: Fuc(a1-2)Gal(b1-4)[Fuc(a1-3)]GlcNAc(b1-3)Gal(b1-4)[Fuc(a1-3)]GlcNAc
# Procedure, shortened: as §1
# [20] = molecular target: Fuc(a1-2)Gal(b1-4)[Fuc(a1-3)]GlcNAc(b1-3)Gal(b1-4)[Fuc(a1-3)]GlcNAc(b1-3)Gal(b1-4)[Fuc(a1-3)]GlcNAc
# Procedure, shortened: as §1
# [21] = molecular target: Fuc(a1-2)Gal(b1-4)[Fuc(a1-3)]GlcNAc(b1-3)GalNAc
# Procedure, shortened: as §1
# [22] = molecular target: Fuc(a1-2)Gal(b1-4)[Fuc(a1-3)]GlcNAc(b1-3)[Neu5Ac(a2-6)Gal(b1-4)GlcNAc(b1-6)]Gal(b1-4)Glc
# Procedure, shortened: as §1
binder,measurement,setting,value
Gal 7 (Homo sapiens) (protein) MSNVPHKSSLPEGIRPGTVLRIRGLVPPNASRFHVNLLCGEEGGSDAALHFNPRLDTSEVVFNSKEGGSWGREERGPGVPFGRGQPFEVLIIASDDGFKAVVGDAQYHHFRHRLPLARVRLVEVGGDVQLDSVRIF,glycan array binding signal (z-score),[1],0.086
same,glycan array binding signal (z-score),[2],0.123
same,glycan array binding signal (z-score),[3],0.109
same,glycan array binding signal (z-score),[4],5.81
same,glycan array binding signal (z-score),[5],5.09
same,glycan array binding signal (z-score),[6],7.12
same,glycan array binding signal (z-score),[7],0.082
same,glycan array binding signal (z-score),[8],0.331
same,glycan array binding signal (z-score),[9],-0.211
same,glycan array binding signal (z-score),[10],0.151
same,glycan array binding signal (z-score),[11],0.179
same,glycan array binding signal (z-score),[12],-0.291
same,glycan array binding signal (z-score),[13],1.89
same,glycan array binding signal (z-score),[14],-0.275
same,glycan array binding signal (z-score),[15],0.254
same,glycan array binding signal (z-score),[16],-0.182
same,glycan array binding signal (z-score),[17],0.553
same,glycan array binding signal (z-score),[18],0.182
same,glycan array binding signal (z-score),[19],-0.101
same,glycan array binding signal (z-score),[20],0.159
same,glycan array binding signal (z-score),[21],0.989
same,glycan array binding signal (z-score),[22],-0.263
